Source: the supplement of paper PMC4967469
The IC50 comes from the fitted curve, where viability falls to half of the control; fits outside the tested doses are given as limits. For AUC the same curve is integrated over the 256-fold range of doses and scaled to a fraction; values near 1 show little effect. For some of these results: An inferred top dose was calculated from the reported fits. For some of these results: Where an entry number is given, a second screen of the drug exists; the two often differ.

Tests used:
Assay in all cases: Viability of human cancer cell lines after 72 h of drug (GDSC screen)
[1] = compound: CC(C)CC(=O)Nc1n[nH]c2c1CN(C(=O)C1CCN(C)CC1)C2(C)C [PHA-793887]; settings: top dose 10.24 µM
Procedure: (§1)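 Human cancer cell lines in 384-well plates, medium with 10% serum, drug for 72 h over a 256-fold dose range (nine 2-fold or five 4-fold steps up to the top dose). Adherent lines were fixed and stained with the nucleic acid dye Syto60, suspension lines read with resazurin; signal relative to control wells, capped at 0 and 100%. One two-parameter sigmoid per drug and line, fitted in a mixed model over all curves with the slope shared within a line.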

[2] = compound: Cc1ccc(NC(=O)c2ccc(CN3CCN(C)CC3)cc2)cc1Nc1nccc(-c2cccnc2)n1 [Imatinib]; settings: top dose 2 µM
Procedure: as §1

[3] = compound: CCc1nc(N)nc(N)c1-c1ccc(Cl)cc1 [Pyrimethamine]; settings: top dose 20 µM; top dose inferred
Procedure: as §1

[4] = compound: CN1CCN(CCOc2cc(OC3CCOCC3)c3c(Nc4c(Cl)ccc5c4OCO5)ncnc3c2)CC1 [AZD-0530]; settings: top dose 2 µM
Procedure: as §1

[5] = compound: C[C@@H](N)c1ccc(C(=O)Nc2ccnc3[nH]ccc23)cc1 [Y-39983]; settings: top dose 20 µM; top dose inferred
Procedure: as §1

[6] = compound: C/C(=C\c1csc(C)n1)[C@@H]1C[C@@H]2O[C@]2(C)CCC[C@H](C)[C@H](O)[C@@H](C)C(=O)C(C)(C)[C@@H](O)CC(=O)O1 [Epothilone B]; settings: top dose 0.032 µM; top dose inferred
Procedure: as §1

[7] = compound: CCCS(=O)(=O)Nc1ccc(F)c(C(=O)c2c[nH]c3ncc(Cl)cc23)c1F [PLX4720]; settings: top dose 10 µM
Procedure: as §1

[8] = compound: NC(=O)Nc1sc(-c2ccc(F)cc2)cc1C(N)=O [TPCA-1]; settings: top dose 20 µM
Procedure: as §1

[9] = screen: GDSC drug entry 1371, top dose inferred

Cell Line	AUC [1]	IC50 [1]	AUC [2]	IC50 [2]	AUC [3]	IC50 [3]	AUC [4]	IC50 [4]	AUC [5]	IC50 [5]	AUC [6]	IC50 [6]	AUC ([7]; screen: GDSC drug entry 1036)	IC50 ([7]; screen: GDSC drug entry 1036)	AUC [8]	IC50 [8]	AUC [7, 9]	IC50 [7, 9]
MHH-NB-11 (neuroblastoma, adherent)	0.846	8.65 µM	0.98	> 2 µM	0.838	15.6 µM	0.983	> 2 µM	0.771	8.4 µM	0.828	0.0225 µM	0.985	> 10 µM	0.642	3.23 µM		
MPP-89 (mesothelioma, adherent)	0.981	> 10.2 µM	0.924	> 2 µM	0.975	> 20 µM	0.921	> 2 µM	0.977	> 20 µM	0.685	0.00775 µM	0.972	> 10 µM	0.929	> 20 µM	0.966	> 10 µM
MRK-nu-1 (breast, suspension)	0.929	> 10.2 µM	0.97	> 2 µM	0.978	> 20 µM	0.97	> 2 µM	0.946	> 20 µM	0.377	0.000945 µM	0.99	> 10 µM	0.923	> 20 µM	0.989	> 10 µM
MS-1 (small cell lung carcinoma, suspension)	0.755	3.14 µM	0.99	> 2 µM	0.983	> 20 µM	0.99	> 2 µM	0.988	> 20 µM	0.746	0.00922 µM	0.973	> 10 µM	0.874	16 µM	0.99	> 10 µM
MY-M12 (leukaemia, suspension)	0.616	1.4 µM	0.485	0.113 µM	0.777	9.13 µM	0.649	0.342 µM	0.828	14.6 µM	0.698	0.00782 µM	0.944	> 10 µM	0.713	5.47 µM		
MZ2-MEL (melanoma, adherent)	0.663	1.97 µM	0.98	> 2 µM	0.978	> 20 µM	0.979	> 2 µM	0.973	> 20 µM	0.542	0.00265 µM	0.735	3.34 µM	0.773	9.19 µM	0.599	1.23 µM
NAMALWA (Burkitt lymphoma, suspension)	0.371	0.301 µM	0.99	> 2 µM	0.847	11.3 µM	0.941	> 2 µM	0.817	8.97 µM	0.694	0.00631 µM	0.974	> 10 µM	0.408	0.73 µM	0.987	> 10 µM
NB1 (neuroblastoma, semi-adherent)	0.945	> 10.2 µM	0.984	> 2 µM	0.864	> 20 µM	0.887	> 2 µM	0.883	> 20 µM	0.776	0.0141 µM	0.982	> 10 µM	0.887	> 20 µM	0.982	> 10 µM
NB14 (neuroblastoma, adherent)	0.959	> 10.2 µM	0.984	> 2 µM	0.913	> 20 µM	0.978	> 2 µM	0.769	7.14 µM	0.676	0.00601 µM	0.985	> 10 µM	0.642	3 µM	0.982	> 10 µM
NCI-H187 (small cell lung carcinoma, suspension)	0.749	3.57 µM	0.984	> 2 µM	0.939	> 20 µM	0.987	> 2 µM	0.977	> 20 µM	0.986	> 0.032 µM	0.974	> 10 µM	0.912	> 20 µM	0.986	> 10 µM
NCI-H209 (small cell lung carcinoma, suspension)	0.711	2.65 µM	0.984	> 2 µM	0.751	6.98 µM	0.978	> 2 µM	0.896	> 20 µM	0.821	0.0202 µM	0.797	5.11 µM	0.623	2.8 µM	0.85	8.42 µM
NCI-H446 (small cell lung carcinoma, semi-adherent)	0.634	1.54 µM	0.984	> 2 µM	0.945	> 20 µM	0.969	> 2 µM	0.887	> 20 µM	0.849	0.0268 µM	0.976	> 10 µM	0.772	8.29 µM	0.857	9.15 µM
NCI-H1436 (small cell lung carcinoma, suspension)	0.9	> 10.2 µM	0.813	1.27 µM	0.984	> 20 µM	0.786	0.995 µM	0.947	> 20 µM	0.746	0.0114 µM	0.965	> 10 µM	0.774	8.96 µM	0.973	> 10 µM
NCI-H1694 (small cell lung carcinoma, suspension)	0.905	> 10.2 µM	0.971	> 2 µM	0.986	> 20 µM	0.959	> 2 µM	0.971	> 20 µM	0.884	> 0.032 µM	0.986	> 10 µM	0.938	> 20 µM	0.988	> 10 µM
NCI-H2081 (small cell lung carcinoma, suspension)	0.928	> 10.2 µM	0.984	> 2 µM	0.985	> 20 µM	0.989	> 2 µM	0.986	> 20 µM	0.852	0.027 µM	0.987	> 10 µM	0.908	> 20 µM	0.988	> 10 µM
NCI-H2135 (non-small cell lung carcinoma, adherent)	0.804	4.93 µM	0.99	> 2 µM	0.989	> 20 µM	0.99	> 2 µM	0.924	> 20 µM	0.831	0.0195 µM	0.99	> 10 µM	0.821	11.1 µM	0.99	> 10 µM
NEC8 (testis, adherent)	0.597	1.13 µM	0.99	> 2 µM	0.54	1.58 µM	0.991	> 2 µM	0.912	> 20 µM	0.608	0.00378 µM	0.969	> 10 µM	0.751	5.72 µM		
NH-12 (neuroblastoma, adherent)	0.969	> 10.2 µM	0.984	> 2 µM	0.983	> 20 µM	0.984	> 2 µM	0.959	> 20 µM	0.422	0.00119 µM	0.981	> 10 µM	0.642	3.24 µM		
OCUB-M (breast, adherent)	0.666	1.73 µM	0.99	> 2 µM	0.989	> 20 µM	0.983	> 2 µM	0.867	14.1 µM	0.401	0.00111 µM	0.987	> 10 µM	0.784	7.31 µM	0.975	> 10 µM
ONS-76 (medulloblastoma, adherent)	0.468	0.519 µM	0.984	> 2 µM	0.804	11 µM	0.984	> 2 µM	0.981	> 20 µM	0.594	0.0037 µM	0.974	> 10 µM	0.887	> 20 µM	0.926	> 10 µM
OVCAR-4 (ovary, adherent)	0.855	> 10.2 µM	0.971	> 2 µM	0.686	5.42 µM	0.915	> 2 µM	0.969	> 20 µM	0.483	0.00176 µM	0.956	> 10 µM	0.784	13.4 µM	0.972	> 10 µM
P30-OHK (lymphoblastic leukaemia, suspension)	0.29	0.184 µM	0.99	> 2 µM	0.95	> 20 µM	0.983	> 2 µM	0.538	1.56 µM	0.64	0.00454 µM	0.918	> 10 µM	0.351	0.524 µM	0.949	> 10 µM
RCC10RGB (kidney, adherent)	0.971	> 10.2 µM	0.971	> 2 µM	0.932	> 20 µM	0.925	> 2 µM	0.853	> 20 µM	0.745	0.0207 µM	0.957	> 10 µM	0.756	14.6 µM	0.934	> 10 µM
ROS-50 (B-cell leukaemia, suspension)	0.92	> 10.2 µM	0.984	> 2 µM	0.942	> 20 µM	0.97	> 2 µM	0.943	> 20 µM	0.963	> 0.032 µM	0.966	> 10 µM	0.759	8.84 µM	0.981	> 10 µM
Raji (Burkitt lymphoma, suspension)	0.818	5.31 µM	0.99	> 2 µM	0.937	> 20 µM	0.989	> 2 µM	0.933	> 20 µM	0.938	> 0.032 µM	0.969	> 10 µM	0.852	13.9 µM	0.984	> 10 µM
SF539 (glioma, adherent)	0.782	3.84 µM	0.984	> 2 µM	0.649	3.08 µM	0.986	> 2 µM	0.977	> 20 µM	0.517	0.00222 µM	0.989	> 10 µM	0.973	> 20 µM	0.969	> 10 µM
ST486 (Burkitt lymphoma, suspension)	0.171	0.0761 µM	0.735	0.534 µM	0.796	8.17 µM	0.825	1.02 µM	0.273	0.31 µM	0.395	0.00107 µM	0.953	> 10 µM	0.315	0.406 µM	0.989	> 10 µM
SUP-T1 (T-cell lymphoblastic leukaemia, suspension)	0.544	0.836 µM	0.91	> 2 µM	0.985	> 20 µM	0.99	> 2 µM	0.957	> 20 µM	0.786	0.0125 µM	0.957	> 10 µM	0.736	5.45 µM	0.989	> 10 µM
SW954 (urogenital system, adherent)	0.817	5.84 µM	0.984	> 2 µM	0.962	> 20 µM	0.926	> 2 µM	0.869	18.8 µM	0.291	0.000511 µM	0.968	> 10 µM	0.73	5.71 µM	0.955	> 10 µM
TE-12 (oesophagus, suspension)	0.889	> 10.2 µM	0.98	> 2 µM	0.889	> 20 µM	0.641	0.336 µM	0.958	> 20 µM	0.588	0.00367 µM	0.912	> 10 µM	0.85	> 20 µM	0.933	> 10 µM
